Measured values as given in patent US8916607B2, “Use of piperphentonamine or salts thereof in manufacture of medicaments for treating brain diseases” (Guangzhou Municipal Zhongwei Biotechnology Limited Company, priority 2009, dated 2014).

Test system: cerebral hemorrhage side of ICH rat brain induced by collagenase
Assay: other animal experiments in ICH rat induced by collagenase: BBB permeability, SOD, MDA, TNF, MPO
Conditions: 2 mg/kg

CN(CCC(=O)/C=C/c1ccc(O)cc1)CCc1ccc2c(c1)OCO2.Cl [piperphentonamine hydrochloride, Piperphentonamine hydrochloride]
BBB permeability of cerebral hemorrhage side: reduce increased degree of the BBB permeability | SOD content of cerebral hemorrhage side: prevent the decrease of SOD content
